Hit rate of the full screen: of about 210,000 compounds, about 730 (0.35%) were called active. The inconclusive results got no clear call from the source; some entries with a clear call stand among them for comparison. Calls follow the shape of the dose curve; as a rule, active = well fitted inhibition curve with a large enough effect; inconclusive = small, poorly fitted or top-dose-only effect; inactive = no such curve, though single readings can be large or run the other way. Where the call is inconclusive, the potency comes from a doubtful curve fit.
assay: qHTS Assay for Identifying the Cell-Membrane Permeable IMPase Inhibitors: Potentiation with Lithium; conditions: CHO-M1 cells, IP1 TR-FRET (IP-One), carbachol + lithium; series mostly up to 59.4 µM; activity, negative = IMPase inhibition: at the top concentration; also: nearly all actives have a fitted effect of over 50% in size;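 as to activity, negative = IMPase inhibition: plate controls were basal vehicle for no effect and high inhibitor control for full effect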
Text: NIH Chemical Genomics Center [NCGC]
NIH Molecular Libraries Probe Production centers Network [MLPCN]
Assay Submitter (PI): Wei Zheng
Lithium has been widely used for the treatment of bipolar disorder. But lithium has a narrow therapeutic index and it can cause side effects such as thirst, weight gain, tremor, polyuria and memory problems. Although the mechanism for lithium action in treatment of bipolar disorder is still not fully understood, inhibition of inositol monophosphatase (IMPase) and the subsequent depletion of the inositol pool in living cells have been implicated as the primary therapeutic benefit of lithium therapy. Therefore, a selective IMPase inhibitor with reduced side effects might be a good drug candidate to replace lithium for the treatment of bipolar disorder. Several IMPase inhibitors have been discovered previously. However, they are not suitable for therapeutic use because of their poor cell membrane penetrability or oral bioavailability; the development of new cell-permeable IMPase inhibitors is needed.
IMPase catalyzes the hydrolysis of inositol-1-phosphate (IP1) to release free inositol. Binding of an agonist to a Gq coupled GPCR results in the activation of PLC, which hydrolyzes the PIP2 to form inositol-1,4,5-trisphosphate (IP3) and diacyl glycerol (DAG). While DAG activates protein kinase C (PKC), IP3 triggers the elevation of intracellular free Ca2+. The IP3 is very rapidly inactivated by hydrolysis to IP2, IP1 and then inositol by a series of enzymes including IMPase. Free inositols are used for synthesis of PI and thus start another inositol cycle.
To identify new cell-permeable IMPase inhibitors, we developed a cell-based IMPase assay in which the cytosolic IP1 is measured by a time-resolved fluorescence resonance energy transfer (TR-FRET) assay. In this assay, an IP1 specific antibody is used to detect the labeled IP1 tracer. When the cell lysate contains the elevated IP1 due to the inhibition of IMPase, the TR-FRET between the labeled antibody and IP1 tracer is disrupted resulting in a reduction in the total signal. Since the TR-FRET is used, this cell-based assay is a homogenous assay without cell wash and medium change that is suitable for assay miniaturization and HTS. In this particular assay, a small amount of lithium is added to potentiate the response of weak activators.
NCGC Assay Protocol Summary:
A Chinese hamster ovary (CHO) cell line stably expressing the M1 receptor (CHO-M1) was obtained from ATCC and maintained in F-12 Kaighn's media (Invitrogen, Carlsbad, CA) supplemented with 10 % FBS, 100 units/ml penicillin, 100 ug/ml streptomycin and 250 ug/ml geneticin at 37C, 5% CO2 in a humidified atmosphere. Before the assay, aliquots of cells were frozen and stored at -135C. The assay was performed in 1536-well format. Data are reported for both the ratio of the two emission wavelengths, and also for the component 'donor' channel, Em2=620. […] AC50 values were determined from concentration-response data modeled with the standard Hill equation.
(1) Frozen CHO-M1 cells were thaw, washed once with fresh media and resuspended in F12K media containing 10% FBS, 100 units/ml penicillin and 100 ug/ml streptomycin. Cells were plated at 4ul/well (2000 cells) in white, tissue culture treated 1536-well plates, and then cultured at 37C, 5 % CO2 for 16 to 30 hours.
(2) Add 23 nl/well of compound in DMSO solution. The final titration for each compound was between 0.6 nM and 46 uM.
(4) Incubation at 37C, 5 % CO2 for 30 min.
(5) Add 1 ul/well of d2-conjugated IP1 (d2-IP1) and 1 ul/well of Eu+ cryptate conjugated anti-IP1 antibody (Eu+-Ab) prepared in the cell lysis buffer, both from the IP-One kit (Cisbio, MA).
(6) Incubate at room temperature for 10 minutes.
(7) Detect the assay plate (Ex = 320, Em1 =665 and Em2 620) in a ViewLux plate reader.
Potency is read from the fitted curve at half-maximal effect.

| SMILES | activity, negative = IMPase inhibition | Potency |
| --- | --- | --- |
| C=CCc1cccc(/C=N/NC(=O)CCC(=O)Nc2ccc(F)cc2)c1O | inactive: 1.25% | – |
| Cn1c(=NC(=O)c2ccc3c(c2)OCCO3)sc2cc(S(C)(=O)=O)ccc21 | – | inconclusive: 12.6 µM [inhibitor, single point] |
| Cc1cc(NC(=O)CSc2ncnc3c2cnn3-c2cccc(Cl)c2)no1 | – | inconclusive: 11.2 µM [inhibitor, single point] |
| C/C=C/C(=O)OCC(=O)Nc1ccccc1Br | – | inconclusive: 5.01 µM [inhibitor, single point] |
| N#Cc1ccc(CN2CCC3(CCNCC3)CC2)cc1 | inactive: 20.3% | – |
| COc1ccccc1-c1n[nH]c(=S)o1 | – | inconclusive: 11.2 µM [inhibitor, single point] |
| COc1cc(-c2nc(-c3ccc(NC(=O)c4ccc5c(c4)OCO5)cc3)no2)cc(OC)c1OC | – | inconclusive: 4.47 µM [inhibitor, partial curve] |
| O=C(O)c1c(Cl)c(Cl)c(Cl)c(Cl)c1-c1c2cc(I)c(=O)c(I)c-2oc2c(I)c(O)c(I)cc12 | – | inconclusive: 15.8 µM [inhibitor, partial curve] |
| O=C(OCCN1C(=O)c2cccc3c(N4CCOCC4)ccc(c23)C1=O)c1cccc(Cl)c1 | – | inconclusive: 12.6 µM [inhibitor, single point] |
| O=c1[nH]c(SCc2nc3ccccc3n2Cc2ccccc2)nc2ccccc12 | – | active: 7.94 µM |
| Cc1cc(C)nc(N2CCCC(C(=O)NCC(c3ccccc3)c3ccccc3)C2)n1 (stereo not drawn) | – | inconclusive: 14.1 µM [inhibitor, single point] |
| CCCCc1cc(=O)oc2cc(OCC(=O)N3CCc4ccccc43)ccc12 | – | inconclusive: 28.2 µM [inhibitor, single point] |
| CN(C)CCC1CCN(c2cc(C#N)c(C#N)cc2[N+](=O)[O-])CC1 | – | inconclusive: 5.01 µM [inhibitor, single point] |
| O=C(CSc1nc(-c2ccccc2)nc2ccccc12)Nc1nccs1 | – | active: 25.1 µM |
| Cn1c(=O)c2c(nc(CN3CCN(Cc4ccccc4)CC3)n2Cc2cccc(Cl)c2)n(C)c1=O | inactive: 20.2% [at 38.3 µM] | – |
| Nc1cc(C(=O)O)c(O)c(S(=O)(=O)O)c1 | – | inconclusive: 10 µM [inhibitor, single point] |
| CCN(CC)c1ncnc2ccc(Br)cc12 | – | active: 25.1 µM |
| COc1ccccc1NC(=O)c1nn(-c2ccc(Cl)cc2)ccc1=O | inactive: -2.59% | – |
| CCOc1ccc(-n2c(SCC(=O)Nc3ccc(CC)cc3)nc3n[nH]c(C)c3c2=N)cc1 | – | inconclusive: 14.1 µM [inhibitor, partial curve] |
| N#CC1=C(N)SC(N)=C(C#N)C1c1ccc(C(F)(F)F)cc1 | – | inconclusive: 8.91 µM [inhibitor, single point] |
| COc1cccc2c(=O)c(C(=O)O)c[nH]c12 | – | inconclusive: 14.1 µM [inhibitor, single point] |
| O=C(OCCN=C1NS(=O)(=O)c2ccccc21)c1cccs1 | – | inconclusive: 31.6 µM [inhibitor, single point] |

| SMILES | activity, negative = IMPase inhibition | Potency |
| --- | --- | --- |
| Cc1nnc(NC(=O)c2oc3cc(C)c(C)cc3c2C)s1 | – | inconclusive: 2.24 µM [inhibitor, partial curve] |
| COc1cccc2c(=O)n(CC(=O)Nc3cccc(F)c3)ccc12 | – | active: 14.1 µM |
| COC(=O)c1ccccc1NC(=O)CCCn1nc([N+](=O)[O-])cc1C | – | inconclusive: 3.16 µM [inhibitor, single point] |
| Cc1ccc2nc(SCC(=O)Nc3ccc4sc(C)nc4c3)c(C#N)cc2c1 | – | inconclusive: 28.2 µM [inhibitor, single point] |
| COc1ccc(-n2c(-c3ccccc3)nnc2-c2ccc(Cl)cc2)cc1 | – | inconclusive: 28.2 µM [inhibitor, single point] |
| COC(=O)Cn1c(=NC(=O)c2cc(OC)cc(OC)c2)sc2cc(OC)ccc21 | – | inconclusive: 11.2 µM [inhibitor, single point] |
| Cc1ccc2[nH]c(=S)cc(C)c2c1 | – | inconclusive: 7.08 µM [inhibitor, partial curve, poor fit] |
| Cc1ccc(NC(=O)C(OC(=O)c2ccc(O)cc2)c2ccccc2)cc1Cl (stereo not drawn) | inactive: 15.2% | – |
| CCn1c(COc2ccccc2C)nnc1SCc1nc2ccccc2c(=O)[nH]1 | – | inconclusive: 12.6 µM [inhibitor, single point] |
| CSc1cc(-c2ccc(Cl)cc2)n(Cc2ccccc2)c(=O)c1C#N | – | inconclusive: 28.2 µM [inhibitor, single point] |
| Cc1n[nH]c(C)c1S(=O)(=O)N1CCCC(C(=O)Nc2ccc3c(c2)OCCO3)C1 (stereo not drawn) | – | inconclusive: 3.16 µM [inhibitor, full curve, poor fit] |
| CC(=O)c1ccc(N2CCN(C(=O)Cn3c(=S)[nH]c4ncccc4c3=O)CC2)cc1 | – | inconclusive: 28.2 µM [inhibitor, single point] |
| CCOc1ccc(N2CC(O)=C(c3nc4ccccc4c(=O)[nH]3)C2=N)cc1 | – | inconclusive: 28.2 µM [inhibitor, single point] |
| O=C1OC(c2ccccc2)/C(=C(/O)c2ccccc2)C1=O (stereo not drawn) | – | inconclusive: 10 µM [inhibitor, single point] |
| CCOc1ccc(C(=O)Nc2cc(C)c3c(=O)oc4ccccc4c3n2)cc1 | – | active: 12.6 µM |
| COc1ccc(Br)cc1-c1nc(CCl)cs1 | – | inconclusive: 8.91 µM [inhibitor, single point] |
| COc1ccc(NC(=O)c2sc3cc(C(F)(F)F)cnc3c2-c2cccs2)cc1 | – | inconclusive: 25.1 µM [inhibitor, single point] |
| CCOC(=O)c1c(C)[nH]c(C(=O)COC(=O)c2ccccc2NC(=O)c2ccco2)c1C | – | inconclusive: 10 µM [inhibitor, single point] |
| Cc1ccc(C2C(C(=O)c3ccco3)=C(O)C(=O)N2c2nnc(C)s2)cc1 (stereo not drawn) | – | active: 10 µM |
| CCOC(=O)c1cnc2c(-c3ccccc3)c(C)nn2c1N | – | inconclusive: 12.6 µM [inhibitor, single point] |
| CCOc1cccc(C2C(C(=O)c3ccc(C)o3)=C(O)C(=O)N2Cc2ccncc2)c1 (stereo not drawn) | – | active: 10 µM |

Reference: PubChem BioAssay AID1457 (National Center for Advancing Translational Sciences (NCATS), 2008)
